Data as given in patent publication US20220289825A1 (NANJING SHUNXIN PHARMACEUTICALS CO LTD OF CHIATAI TIANQING …, published 2022).

How the values were obtained:
[1] = molecular target: T1, PD-L1 protein (Sinobiological, 10084-H08H) (UniProt Q9NZQ7 in part); assay: ELISA; PD-L1 recombinant protein coated at 2 µg/mL, HRP goat anti-human secondary antibody
T1 construct: Bought reagent; also called PD-L1 recombinant protein

[2] = molecular target: PD-L1 on CHO-PDL1-CD3L cells (UniProt Q9NZQ7); assay: cell-based or functional assay
[3] = molecular target: T2, TGF-β1 recombinant protein (Sinobiological, 10804-H08H) (UniProt P01137 30-390); assay: ELISA; TGF-β1 recombinant protein coated at 2 µg/mL, HRP goat anti-human secondary antibody
T2 construct: also called TGF-β protein

[4] = molecular target: T2, TGF-β1 recombinant protein …; assay: SPR, Biacore T200; fusion protein captured by anti-hIgG1(Fc) on CM5 chip, TGF-β as analyte, 1:1 Langmuir fit
[5] = molecular target: T1, PD-L1 protein (Sinobiological, …); assay: SPR, Biacore T200; fusion protein captured by anti-hIgG1(Fc) on CM5 chip, PD-L1 as analyte, 1:1 Langmuir fit
[6] = molecular target: T2, TGF-β1 recombinant protein …; assay: SPR, Biacore T200; M7824 captured by anti-hIgG1(Fc) on CM5 chip, TGF-β as analyte, 1:1 Langmuir fit

T2 sequence (P01137 30-390 limits assumed): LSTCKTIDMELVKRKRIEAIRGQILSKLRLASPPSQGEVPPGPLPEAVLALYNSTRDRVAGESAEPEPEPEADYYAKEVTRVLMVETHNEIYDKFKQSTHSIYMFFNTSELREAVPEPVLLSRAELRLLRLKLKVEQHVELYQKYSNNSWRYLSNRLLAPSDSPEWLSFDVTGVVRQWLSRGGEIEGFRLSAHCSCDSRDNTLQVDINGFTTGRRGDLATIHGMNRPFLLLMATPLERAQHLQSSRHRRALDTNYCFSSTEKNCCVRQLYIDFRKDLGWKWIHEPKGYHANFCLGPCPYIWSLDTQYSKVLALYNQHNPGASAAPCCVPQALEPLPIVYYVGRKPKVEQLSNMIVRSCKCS

B1: hu5G11-hIgG1-TGF-β RII (other)
heavy: QITLKESGPTLVKPTQTLTLTCTVSGFSLSTYGVHWIRQPPGKALEWLGVIWRGVTTDYNAAFMSRLTITKDNSKNQVVLTMNNMDPVDTATYYCARLGFYAMDYWGQGTLVTVSS[no letters for human IgG1 constant region with D265A (EU numbers)]GGGGSGGGGSGGGGSGGGGSGIPPHVQKSVNNDMIVTDNNGAVKFPQLCKFCDVRFSTCDNQKSCMSNCSITSICEKPQEVCVAVWRKNDENITLETVCHDPKLPYHDFILEDAASPKCIMKEKKKPGETFFMCSCSSDECNDNIIFSEEYNTSNPD
light: DIQMTQSPSSLSASVGDRVTITCKASQSVSNDVAWYQQKPGKAPKLLIYYAANRYTGVPDRFSGSGYGTDFTFTISSLQPEDIATYFCQQDYTSPYTFGQGTKLEIKRTVAAPSVFIFPPSDEQLKSGTASVVCLLNNFYPREAKVQWKVDNALQSGNSQESVTEQDSKDSTYSLSSTLTLSKADYEKHKVYACEVTHQGLSSPVTKSFNRGEC
notes: Expressed transiently in ExpiCHO-S cells and purified on protein A; also called anti-PD-L1-TGF-β RII fusion protein; PD-L1/TGFβ RII
- EC50 [1]: 0.0343 µg/mL
- Biological activity (EC50 of reference sample/EC50 of test sample x 100%) [2]: 75.4%
- EC50 (nmol/L), reporter gene assay (CHO-PDL1-CD3L + Jurkat-PD-1-NFAT, luciferase RLU) [2]: 6.11 nmol/L
- EC50 [3]: 0.067 µg/mL
- Kd [4]: 11.3 nM
- koff [4]: 0.000937 s⁻¹
- kon [4]: 82800 M⁻¹ s⁻¹
- Kd [5]: 0.0427 nM
- koff [5]: 0.000745 s⁻¹
- kon [5]: 1.74e+07 M⁻¹ s⁻¹

B2: M7824 (other)
heavy: EVQLLESGGGLVQPGGSLRLSCAASGFTFSSYIMMWVRQAPGKGLEWVSSIYPSGGITFYADTVKGRFTISRDNSKNTLYLQMNSLRAEDTAVYYCARIKLGTVTTVDYWGQGTLVTVSSASTKGPSVFPLAPSSKSTSGGTAALGCLVKDYFPEPVTVSWNSGALTSGVHTFPAVLQSSGLYSLSSVVTVPSSSLGTQTYICNVNHKPSNTKVDKRV[no letters for human IgG1 Fc]GGGGSGGGGSGGGGSGGGGSGIPPHVQKSVNNDMIVTDNNGAVKFPQLCKFCDVRFSTCDNQKSCMSNCSITSICEKPQEVCVAVWRKNDENITLETVCHDPKLPYHDFILEDAASPKCIMKEKKKPGETFFMCSCSSDECNDNIIFSEEYNTSNPD
light: QSALTQPASVSGSPGQSITISCTGTSSDVGGYNYVSWYQQHPGKAPKLMIYDVSNRPSGVSNRFSGSKSGNTASLTISGLQAEDEADYYCSSYTSSSTRVFGTGTKVTVLGQPKANPTVTLFPPSSEELQANKATLVCLISDFYPGAVTVAWKADGSPVKAGVETTKPSKQSNNKYAASSYLSLTPEQWKSHRSYSCQVTHEGSTVEKTVAPTECS
- Kd [6]: 15.2 nM
